Assays:
[1] = target: T1, human TROP2 (Homo sapiens, UniProt P09758); test: Surface plasmon resonance kinetics and affinities (Table 8B); format: binding; conditions: SPR, analyte TROP2
T1 sequence (P09758 27-323): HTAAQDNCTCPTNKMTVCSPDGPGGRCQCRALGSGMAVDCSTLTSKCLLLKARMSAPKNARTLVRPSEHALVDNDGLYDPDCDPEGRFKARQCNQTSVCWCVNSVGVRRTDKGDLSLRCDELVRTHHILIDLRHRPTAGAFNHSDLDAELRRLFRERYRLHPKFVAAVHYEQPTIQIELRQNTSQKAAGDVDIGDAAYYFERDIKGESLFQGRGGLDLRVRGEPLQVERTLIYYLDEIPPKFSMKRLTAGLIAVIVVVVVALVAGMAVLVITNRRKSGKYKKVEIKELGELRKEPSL
Description: Surface plasmon resonance (SPR) experiments were performed to determine the kinetics and affinities of certain antibodies shown in Table 8A.

[2] = target: T1, human TROP2; test: SPR affinity ranking of humanized antibodies (Table 8C); format: binding

B1: HC1/LC5 (antibody)
heavy: QVQLVQSGAEVKKPGASVKVSCKASGYTFTDYSINWVRQAPGQGLEWMGVISTYYGDASYNQKFKGRVTMTTDTSTSTAYMELRSLRSDDTAVYYCARYGDGYNQFDYWGQGTMVTVSS[human IgG1 constant region cut from this listing]
light: DIQMTQSPSSLSASVGDRVTITCRVSESVDSYGNNFMHWYQQKPGKAPKLLIYRASNLESGVPSRFSGSGSGTDFTFTISSLQPEDIATYYCQQSYEDPYTFGGGTKLEIKRTVAAPSVFIFPPSDEQLKSGTASVVCLLNNFYPREAKVQWKVDNALQSGNSQESVTEQDSKDSTYSLSSTLTLSKADYEKHKVYACEVTHQGLSSPVTKSFNRGEC
With B1 the Rmax [1] was 51.7, the “ka” value [1] was 1.81e+06 M⁻¹ s⁻¹ and the “kd” value [1] was 0.000104 s⁻¹. The “Ka” value [2] was 1.39e+06 M⁻¹ s⁻¹, the “Kd (1/s)” value [2] was 0.000149 s⁻¹ and the “Rmax (RU)” value [2] was 52.5 RU.

B2: HC4/LC1 (antibody)
heavy: QVQLVQSGAEVKKPGSSVKVSCKASGYTFTDYSINWVRQAPGQGLEWMGVISTYYGDASYNQKFKGRVTITADESTSTAYMELSSLRSEDTAVYYCARYGDGYNQFDYWGQGTLVTVSS[human IgG1 constant region cut from this listing]
light: DIVMTQSPDSLAVSLGERATINCRVSESVDSYGNNFMHWYQQKPGQPPKLLIYRASNLESGVPDRFSGSGSGTDFTLTISSLQAEDVAVYYCQQSYEDPYTFGQGTKLEIKRTVAAPSVFIFPPSDEQLKSGTASVVCLLNNFYPREAKVQWKVDNALQSGNSQESVTEQDSKDSTYSLSSTLTLSKADYEKHKVYACEVTHQGLSSPVTKSFNRGEC
B2 was tested, and the “Ka” value [2] was 1.69e+06 M⁻¹ s⁻¹, the “Kd (1/s)” value [2] was 7.74e-05 s⁻¹ and the “Rmax (RU)” value [2] was 56.6 RU.

B3: HC4/LC4: humanized anti-TROP2 antibody, heavy chain SEQ ID NO: 55, light chain SEQ ID NO: 61 (antibody)
heavy: QVQLVQSGAEVKKPGSSVKVSCKASGYTFTDYSINWVRQAPGQGLEWMGVISTYYGDASYNQKFKGRVTITADESTSTAYMELSSLRSEDTAVYYCARYGDGYNQFDYWGQGTLVTVSS[human IgG1 constant region cut from this listing]
light: EIVLTQSPATLSLSPGERATLSCRVSESVDSYGNNFMHWYQQKPGQAPRLLIYRASNLESGIPARFSGSGSGTDFTLTISSLEPEDFAVYYCQQSYEDPYTFGGGTKVEIKRTVAAPSVFIFPPSDEQLKSGTASVVCLLNNFYPREAKVQWKVDNALQSGNSQESVTEQDSKDSTYSLSSTLTLSKADYEKHKVYACEVTHQGLSSPVTKSFNRGEC
With B3 the “Ka” value [2] was 1.71e+06 M⁻¹ s⁻¹, the “Kd (1/s)” value [2] was 8.88e-05 s⁻¹ and the “Rmax (RU)” value [2] was 38.6 RU.

B4: HC2/LC1 (antibody)
heavy: QVQLVQSGAEVKKPGASVKVSCKASGYTFTDYSINWVRQAPGQGLEWMGVISTYYGDASYNQKFKGRVTMTRDTSTSTVYMELSSLRSEDTAVYYCARYGDGYNQFDYWGQGTLVTVSS[human IgG1 constant region cut from this listing]
light: DIVMTQSPDSLAVSLGERATINCRVSESVDSYGNNFMHWYQQKPGQPPKLLIYRASNLESGVPDRFSGSGSGTDFTLTISSLQAEDVAVYYCQQSYEDPYTFGQGTKLEIKRTVAAPSVFIFPPSDEQLKSGTASVVCLLNNFYPREAKVQWKVDNALQSGNSQESVTEQDSKDSTYSLSSTLTLSKADYEKHKVYACEVTHQGLSSPVTKSFNRGEC
In the case of B4, the “Ka” value [2] is reported as 1.54e+06 M⁻¹ s⁻¹, the “Kd (1/s)” value [2] is reported as 5.78e-05 s⁻¹ and the “Rmax (RU)” value [2] is reported as 65.3 RU.

B5: HC2/LC2: humanized anti-TROP2 antibody, heavy chain SEQ ID NO: 53, light chain SEQ ID NO: 59 (antibody)
heavy: QVQLVQSGAEVKKPGASVKVSCKASGYTFTDYSINWVRQAPGQGLEWMGVISTYYGDASYNQKFKGRVTMTRDTSTSTVYMELSSLRSEDTAVYYCARYGDGYNQFDYWGQGTLVTVSS[human IgG1 constant region cut from this listing]
light: DVVMTQSPLSLPVTLGQPASISCRVSESVDSYGNNFMHWFQQRPGQSPRRLIYRASNLESGVPDRFSGSGSGTDFTLKISRVEAEDVGVYYCQQSYEDPYTFGGGTKVEIKRTVAAPSVFIFPPSDEQLKSGTASVVCLLNNFYPREAKVQWKVDNALQSGNSQESVTEQDSKDSTYSLSSTLTLSKADYEKHKVYACEVTHQGLSSPVTKSFNRGEC
In the case of B5, the “Ka” value [2] is reported as 24900 M⁻¹ s⁻¹, the “Kd (1/s)” value [2] is reported as 0.0251 s⁻¹ and the “Rmax (RU)” value [2] is reported as 63.7 RU.

B6: HC2/LC5 (antibody)
heavy: QVQLVQSGAEVKKPGASVKVSCKASGYTFTDYSINWVRQAPGQGLEWMGVISTYYGDASYNQKFKGRVTMTRDTSTSTVYMELSSLRSEDTAVYYCARYGDGYNQFDYWGQGTLVTVSS[human IgG1 constant region cut from this listing]
light: DIQMTQSPSSLSASVGDRVTITCRVSESVDSYGNNFMHWYQQKPGKAPKLLIYRASNLESGVPSRFSGSGSGTDFTFTISSLQPEDIATYYCQQSYEDPYTFGGGTKLEIKRTVAAPSVFIFPPSDEQLKSGTASVVCLLNNFYPREAKVQWKVDNALQSGNSQESVTEQDSKDSTYSLSSTLTLSKADYEKHKVYACEVTHQGLSSPVTKSFNRGEC
B6 was tested, and the “Ka” value [2] was 1.42e+06 M⁻¹ s⁻¹, the “Kd (1/s)” value [2] was 7.38e-05 s⁻¹ and the “Rmax (RU)” value [2] was 65.6 RU.

— US12458818B2, “Anti-trophoblast cell surface antigen 2 (TROP2) antibodies and antibody drug conjugates comprising same” (CSPC MEGALITH BIOPHARMACEUTICAL CO., LTD., priority 2019, dated 2025)
